# Data from PubChem BioAssay AID662 (National Center for Advancing Translational Sciences (NCATS), 2007).
# Hit rate of the full screen: of about 71,000 compounds, about 1,800 (2.5%) were called active. This list was built around the results that the source calls inconclusive (neither active nor inactive); the mix of calls is not that of the screen. The call rests on the fitted dose curve; in most records, active means well fitted activation curve with a large enough effect in the signal ratio, with a control signal flat (not every such curve was filed as active); inconclusive means small, poorly fitted or top-dose-only effect, or effect the other way, or a change in a side signal; inactive means flat fitted curve, though single readings scatter; the % refers to the signal ratio. A potency beside an inconclusive call is a rough fit, not a confirmed value.
# Assay: Cell signaling CRE-BLA (Fsk stim); on activity change, negative = inhibition: % of control where 0% means no effect
# Conditions: CHO CRE-bla reporter (cAMP response element driving beta-lactamase), forskolin EC10, beta-lactamase ratio; activity change, negative = inhibition: at 38.2 µM (top of the series) unless noted
# From the text: NIH Molecular Libraries Screening Centers Network [MLSCN]
# NIH Chemical Genomics Center [NCGC]
# Assay Provider: Marshall W. Nirenberg, U.S. National heart lung & blood institute
# Memories persist for different lengths of time, from seconds or minutes to a lifetime. There are two kinds of memory: short-term memory (STM) and long-term memory (LTM). STM lasts for minutes to hours, which maybe mediated by modifications of molecules involved in synaptic functions. LTM lasts for days or longer, and may be due to the formation of new synapses or restructuring of existing synapses. LTM, but not STM, requires gene transcription and synthesis of proteins. CREB (cyclic-AMP Responsive Element Binding Protein) is one of the candidates plays an important role for enhancement of some types of LTM. CREB, a family of transcription factors, regulates the transcription of genes containing cAMP Responsive Elements (CRE). CRE is a nucleotide sequence often found in the promoter regions of genes that are binding sites for CREB.
# Using a beta-lactamase reporter-gene under control of cAMP responsive element, a cell-based assay [CellSensor(TM) CRE-bla CHO developed by Invitrogen Corp.] was used to measure forskolin-induced signaling. Library compounds were measured for their ability to modulate positively or negatively the action of EC10 NKH 477, a water soluble forskolin, on reporter gene activity. Compounds were screened in a titration series in 1536-well format. Positive and negative modulators were identified based on the AC50 values derived from the screening data.
# NCGC Assay Protocol Summary
# 2000 cells/5uL in Opti-MEM medium containing 0.5% dialyzed FBS, 0.1 mM NEAA, 1 mM sodium pyruvate and 10 mM HEPES was dispensed into 1536-well plates and cells were cultured at 37 degrees Celsius overnight. […] And then the plates were incubated at 37 degrees Celsius for 3 hours. 1 uL of CCF4-dye mixture was added to each well. After incubated at room temperature for 2 hours the plates were measured on an EnVision plate reader at Excitation 405nm, Emission1=460nm and Emission 2=530nm. The %Activity was determined from the ratio of 460nm/530nm.
# Keywords: NIH Roadmap, MLSCN, MLSMR, qHTS, NCGC, CRE, beta-lactamase reporter-gene assay.
# Potency means the concentration at half of the fitted maximal effect; tags describe the fitted curve by direction and shape.
SMILES,Potency,"activity change, negative = inhibition"
CC(C)(CC(=O)N1CCN(c2ccc(Cl)cc2)CC1)CC1=NS(=O)(=O)c2ccccc2N1,"inconclusive: 15.8 µM [falling, single point]",–
Cc1cccc2cc(C#N)c(NCCNS(=O)(=O)c3ccc4c(c3)OCCO4)nc12,active: 12.6 µM,–
Cn1c(=O)n(C)c2cc(C(=O)O)ccc21,"inconclusive: 25.1 µM [falling, single point]",–
O=c1c(CCc2ccccc2)nc2cnc(N3CCNCC3)nc2n1C1CC1,–,inconclusive: 23.4%
O=C(Nc1ccc(-n2nncc2-c2ccco2)cc1)c1cccc(F)c1,–,inconclusive: 17.6%
Cc1ccc2[nH]c(=O)c(CN(CC3CCCO3)C(=O)c3ccncc3)cc2c1 (configuration not stated),"inconclusive: 25.1 µM [rising, single point]",–
CCn1cc(C(=O)NCc2ccco2)c(=O)c2cc(S(=O)(=O)N3CCc4ccccc4C3)ccc21,"inconclusive: 2.51 µM [falling, full curve]",–
COc1ccc(N(CC(=O)Nc2cccc(C(C)=O)c2)S(C)(=O)=O)cc1OC,–,inconclusive: 29.4%
N=c1c2c3c(sc2nc2n1CCC2)CCCC3,–,inactive: 16.1%
COC(=O)c1cc(OC)c(OC)cc1NC(=O)c1c(-c2ccccc2Cl)noc1C,active: 1 µM,–
Cn1c(=O)c2c(nc(SCCNS(=O)(=O)c3ccccc3)n2C)n(C)c1=O,"inconclusive: 12.6 µM [rising, single point]",–
COC(=O)c1ccccc1NC(=O)c1noc2c1CCCC2,"inconclusive: 10 µM [rising, single point]",–
CCOC(=O)Cc1csc(NC(NC(=O)CC)(C(F)(F)F)C(F)(F)F)n1,–,inconclusive: -0.912% [at 7.6 µM]
COc1ccc(O)c(/C=c2/sc3nc4cc(C)c(C)cc4n3c2=O)c1,"inconclusive: 5.01 µM [rising, single point]",–
COc1ccc(NC(=O)CCOc2ccccc2)c(OC)c1,–,inconclusive: -13.8%
CC(=O)c1sc(Nc2ccccn2)nc1C,–,inconclusive: 23.4%
COc1ccc(C(=O)NCc2nnc(SCC(=O)N3CCc4ccccc43)o2)cc1OC,–,inactive: 20.6%
COc1cccc(C2C(C#N)=C(N)Oc3cc(C)oc(=O)c32)c1OC (configuration not stated),–,inactive: 0.461%
Cc1ccc(Cn2ccc(NC(=O)c3cc(-c4cccs4)on3)n2)cc1,–,inactive: 5.28%
COc1cccc(C2=Nn3c(nnc3-c3ccccc3O)SC2)c1,"inconclusive: 10 µM [rising, partial curve]",–
O=c1[nH]c(NCCCO)nc2c1C1(CCCC1)Cc1ccccc1-2,–,inactive: -11.4%
O=C(CCN1CCCCC1)c1csc2ccccc12,–,inactive: -15.2% [at 7.6 µM]
